# The list shows a part of the results.
# B1: LEA (Lycopersicon esculentum) (protein)
# chain: NEVFDVPMNETIGVESINASVGGYPRCGAQGDGGNCPSGMCCSVWGWCGKTYGYCAPQNCQKQCPAPYPEGRCGWQADGKSCPNGKCCSYGGWCGTTSDYCARQNCQKQCILPSPPPPPPPPPGFPRPECGLQKNGERCTKPGECCSIWGLCGATYKYCDPQHCQKQCSAPFPPGRCGWQADGRPCPTGQCCSFSGWCGTTSAHCTYPQCVSQCNDPRFPSSLNNRIQSFML
# Key:
# Experiment in all cases: glycan array binding signal (z-score within array); higher = stronger binding
# Conditions in all cases: glycan notation: IUPAC condensed, linker removed
# [1] = molecular target: Neu5Ac(a2-3)Gal6S(b1-4)GlcNAc
# How it was run: (§1)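 Glycan array binding is given as a within-array Z-score, which can be read as non-binding when negative. The arrays, 3228 of them, came from the Consortium for Functional Glycomics database and were retained only where the protein sequence was available. Z-scores were averaged across arrays of the same protein sequence at different concentrations or buffers and across linkers.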
# [2] = molecular target: Neu5Ac(a2-3)Gal6S(b1-4)[Fuc(a1-3)]GlcNAc
# How it was run: as §1
# [3] = molecular target: Neu5Ac(a2-3)GalNAc
# How it was run: as §1
# [4] = molecular target: Neu5Ac(a2-3)GalNAc(b1-4)GlcNAc
# How it was run: as §1
# [5] = molecular target: Neu5Ac(a2-3)[GalNAc(b1-4)]Gal(b1-4)Glc
# How it was run: as §1
# [6] = molecular target: Neu5Ac(a2-3)[GalNAc(b1-4)]Gal(b1-4)GlcNAc
# How it was run: as §1
# [7] = molecular target: Neu5Ac(a2-3)[Neu5Ac(a2-6)]GalNAc
# How it was run: as §1
# [8] = molecular target: Neu5Ac(a2-6)Gal(b1-4)GlcNAc
# How it was run: as §1
# [9] = molecular target: Neu5Ac(a2-6)Gal(b1-4)GlcNAc(b1-2)Man(a1-3)[Neu5Ac(a2-6)Gal(b1-4)GlcNAc(b1-2)Man(a1-6)]Man(b1-4)GlcNAc(b1-4)GlcNAc
# How it was run: as §1
# [10] = molecular target: Neu5Ac(a2-6)Gal(b1-4)GlcNAc(b1-3)Gal(b1-4)GlcNAc
# How it was run: as §1
# [11] = molecular target: Neu5Ac(a2-6)Gal(b1-4)GlcNAc(b1-3)Gal(b1-4)[Fuc(a1-3)]GlcNAc(b1-3)Gal(b1-4)[Fuc(a1-3)]GlcNAc
# How it was run: as §1
# [12] = molecular target: Neu5Ac(a2-6)Gal(b1-4)GlcNAc6S
# How it was run: as §1
# [13] = molecular target: Neu5Ac(a2-6)GalNAc
# How it was run: as §1
# [14] = molecular target: Neu5Ac(a2-6)GalNAc(b1-4)GlcNAc
# How it was run: as §1
# [15] = molecular target: Neu5Ac(a2-8)Neu5Ac
# How it was run: as §1
# [16] = molecular target: Neu5Ac(a2-8)Neu5Ac(a2-3)Gal(b1-4)Glc
# How it was run: as §1
# [17] = molecular target: Neu5Ac(a2-8)Neu5Ac(a2-3)[GalNAc(b1-4)]Gal(b1-4)Glc
# How it was run: as §1
# [18] = molecular target: Neu5Ac(a2-8)Neu5Ac(a2-8)Neu5Ac
# How it was run: as §1
# [19] = molecular target: Neu5Ac(a2-8)Neu5Ac(a2-8)Neu5Ac(a2-3)Gal(b1-4)Glc
# How it was run: as §1
# [20] = molecular target: Neu5Ac(a2-8)Neu5Ac(a2-8)Neu5Ac(a2-3)[GalNAc(b1-4)]Gal(b1-4)Glc
# How it was run: as §1
# [21] = molecular target: Neu5Ac(a2-8)Neu5Ac(a2-8)Neu5Ac(a2-8)Neu5Ac(a2-3)[GalNAc(b1-4)]Gal(b1-4)Glc
# How it was run: as §1
# [22] = molecular target: Neu5Ac9Ac(a2-6)Gal(b1-4)GlcNAc
# How it was run: as §1
# [23] = molecular target: Neu5Gc(a2-3)Gal(b1-3)GlcNAc
# How it was run: as §1
# [24] = molecular target: Neu5Gc(a2-3)Gal(b1-3)[Fuc(a1-4)]GlcNAc
# How it was run: as §1
# [25] = molecular target: Neu5Gc(a2-3)Gal(b1-4)Glc
# How it was run: as §1
# [26] = molecular target: Neu5Gc(a2-3)Gal(b1-4)GlcNAc
# How it was run: as §1
# [27] = molecular target: Neu5Gc(a2-3)Gal(b1-4)[Fuc(a1-4)]GlcNAc
# How it was run: as §1
# [28] = molecular target: Neu5Gc(a2-6)Gal(b1-4)GlcNAc
# How it was run: as §1
# [29] = molecular target: Neu5Gc(a2-6)GalNAc
# How it was run: as §1
binder,measurement,setting,value
B1,glycan array binding signal (z-score),[1],-0.537
same,glycan array binding signal (z-score),[2],-0.553
same,glycan array binding signal (z-score),[3],-0.476
same,glycan array binding signal (z-score),[4],1.42
same,glycan array binding signal (z-score),[5],-0.536
same,glycan array binding signal (z-score),[6],1.75
same,glycan array binding signal (z-score),[7],-0.558
same,glycan array binding signal (z-score),[8],-0.556
same,glycan array binding signal (z-score),[9],-0.502
same,glycan array binding signal (z-score),[10],1.84
same,glycan array binding signal (z-score),[11],-0.529
same,glycan array binding signal (z-score),[12],-0.533
same,glycan array binding signal (z-score),[13],-0.565
same,glycan array binding signal (z-score),[14],-0.513
same,glycan array binding signal (z-score),[15],-0.559
same,glycan array binding signal (z-score),[16],-0.541
same,glycan array binding signal (z-score),[17],-0.525
same,glycan array binding signal (z-score),[18],-0.477
same,glycan array binding signal (z-score),[19],-0.559
same,glycan array binding signal (z-score),[20],-0.545
same,glycan array binding signal (z-score),[21],-0.554
same,glycan array binding signal (z-score),[22],-0.54
same,glycan array binding signal (z-score),[23],-0.558
same,glycan array binding signal (z-score),[24],-0.548
same,glycan array binding signal (z-score),[25],-0.122
same,glycan array binding signal (z-score),[26],1.61
same,glycan array binding signal (z-score),[27],-0.041
same,glycan array binding signal (z-score),[28],-0.558
same,glycan array binding signal (z-score),[29],-0.545
